Results published in PubChem BioAssay AID493208 (National Center for Advancing Translational Sciences (NCATS), 2011).
Out of some 44,000 compounds screened, about 340 (0.77%) were called active. Roughly 5% stayed inconclusive and do not appear here. The call rests on the fitted dose curve; in most records, active means well fitted inhibition curve with a large enough effect; inconclusive means small, poorly fitted or top-dose-only effect; inactive means flat fitted curve, though single readings scatter. Some of the results follow.

Experiment: Acumen qHTS Assay for Inhibitors of the mTORC1 Signaling Pathway in MEF (Tsc2-/-, p53-/-) Cells: Sytravon;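 further: plate controls were DMSO for no effect and rapamycin for full effect; nearly all actives have a fitted effect of over 50% in size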
Settings: phospho-rpS6 immunofluorescence/PI, 24 h; series mostly up to 38.3 µM; activity change, negative = inhibition: at the top concentration
Method in brief: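 Cell-based qHTS: Tsc2-/- p53-/- MEF, 24 h cpd, 37 °C; fix/perm, anti-phospho-S6 Alexa-488 + PI; Acumen 488 nm scan; pS6/PI ratio, % positive cells; rapamycin 7.5 nM = inhibition ref; PI count = viability.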

Activity change, negative = inhibition, inactive:
Cc1cc(C)cc(NC(=O)CC(C)n2nc(C)cc2C)c1 (centres undefined) -11.3%, CCN(CC)c1ccc(NC(=O)CN2CCN(S(=O)(=O)c3ccc(C(C)C)cc3)CC2)cc1 -10.5%, O=C(Cn1ccc2cc(S(=O)(=O)N3CCCC3)ccc21)NCc1ccc(Cl)cc1 -7.02%, COc1ccc(CNC(=O)c2ccc3c(c2)N=C(C)c2c(C)ccc(C)c2S3)cc1 0.981%, COc1cc(NC(=O)Cn2c(=O)n(Cc3ccccc3)c(=O)c3oc4ccccc4c32)cc(OC)c1 1.74%, CCOC(=O)c1c(S(=O)(=O)N2CCC(C(=O)Nc3ccc(C)cn3)CC2)c(C)n(C)c1C 0.287%, Cc1cc(-c2ccc(S(=O)(=O)Nc3ccccc3C)cc2)on1 -18.1%, COc1ccc(-c2noc(CC(=O)N(C)c3ccccc3F)n2)cc1 0.316%, O=C(Nc1ccc(F)cc1)C1CCN(c2nc3ccccc3nc2C(F)(F)F)CC1 3.9%, COc1ccc(NC(=O)C2=C(C)Nc3nc(SCc4ccc(C)cc4C)nn3C2c2cccc(OC)c2OC)cc1 (centres undefined) 8.43%, Cc1[nH]c(=O)[nH]c(=O)c1S(=O)(=O)Nc1cccc(Cl)c1C -7.78%, CCOc1ccc(CNC(=O)Cn2nc(C)c3nn(-c4ccc(Cl)cc4)c(C)c3c2=O)cc1 0%, COc1cc(-c2ccno2)ccc1S(=O)(=O)N1CCN(c2cccc(Cl)c2)CC1 1.05%, COc1ccccc1NC(=O)c1sc2nc(-c3cc4cc(Cl)ccc4oc3=O)[nH]c(=O)c2c1C -15.3%, Cc1ccc(CNC(=O)c2oc3ccc(S(=O)(=O)N4CCCC(C)C4)cc3c2C)cc1 (centres undefined) 5.48%, Cc1oc2ncnc(N3CCCCC3)c2c1C(=O)NCC1CCN(Cc2ccccc2F)CC1 3.49%, COc1ccc(OC)c(NC(=O)Cn2nc3c(cc2=O)CCCC3)c1 2.7%, CCc1ccc(NC(=O)CC2C(=O)N(c3cccc(C)c3)C(=O)N2Cc2cccc(OC)c2)cc1 (centres undefined) -0.775%, COc1ccc(CCNS(=O)(=O)c2ccc3c(c2)c(=O)n(C)c(=O)n3C)cc1OC 1.33%, CCc1nn(CC(=O)NCc2ccco2)c(=O)c2cc3cc(F)ccc3n12 0.645%, Cc1ccc(NC(=O)c2nc(S(C)(=O)=O)ncc2N(Cc2cccc(F)c2)Cc2ccco2)cc1C 0.0042%, NS(=O)(=O)c1ccc(NC(=O)c2cc(-c3cccs3)nc3ccccc23)cc1 14.6%, Cc1ccc(NC(=O)CCCc2nnc3n(C)c(=O)c4sccc4n23)cc1C -15.3%, Cc1cccc2sc(N(CCCN(C)C)C(=O)COc3ccccc3)nc12 -0.948%, COC(=O)c1ccccc1NC(=O)Cn1c(=O)n(-c2cccc(C(F)(F)F)c2)c(=O)c2c(C)c(C)sc21 -0.613%, Cc1ccc(C)c(N2CCN(C(=O)c3cc(S(=O)(=O)N4CCCCCC4)cn3C)CC2)c1 -13%, COCCCNC(=O)c1ccc(Cn2c(SCc3cccc(C)c3)nc3cccnc32)cc1 -8.57%, Cc1ccc(S(=O)(=O)NCC2CCC(C(=O)NCCc3ccc(Cl)cc3)CC2)cc1 (centres undefined) -12.6%, CCOc1ccc(N(CC)S(=O)(=O)N2CCCC(C(=O)NCCc3ccc(OC)cc3)C2)cc1 (centres undefined) -0.947%, O=C(/C=C\c1ccccc1)NC1CC(=O)N(c2ccccc2)C1 (centres undefined) -1.67%, CCOC(=O)C1CCCN(C(=O)c2nn(-c3ccc(C)cc3)c(=O)c3c2c2ccccc2n3C)C1 (centres undefined) -0.912%, CCCn1c(CCCNC(=O)c2ccccc2OC)nc2ccccc21 2.1%, Cc1cc(C)c2c(n1)sc1c(=O)n(-c3cc(Cl)ccc3C)nnc12 2.69%, CCN(Cc1ccccc1)C(=O)c1sc2nc3n(c(=O)c2c1C)CCCC3 9.99%, CCCCN(C)CCCNC(=O)Cn1ncc2c3ccccc3n(Cc3cc(C)ccc3C)c2c1=O -5.49%, COc1ccccc1CNC(=O)c1cc2c(s1)-c1ccccc1OC2 3.19%, CCC(=O)N1c2ccc(S(=O)(=O)CCC(=O)Nc3ccc(Br)c(C)c3)cc2CC1C (centres undefined) -5.48%, CCOCCCN(Cc1ccco1)C(=O)c1cc2c(=O)[nH]c3ccc(C)cc3c2s1 -4.06%, O=S(=O)(c1ccccc1)c1nnn2c1nc(NCc1ccccc1)c1sccc12 -10.1%, COCCNC(=O)Cn1c(=O)n(CCCCCC(=O)Nc2ccccc2)c(=O)c2sccc21 -6.18%, O=C(NCc1cccs1)c1ccc(Cn2c(SCc3ccc(F)cc3)nc3cccnc32)cc1 -4.78%, Cc1ccc(Cl)cc1N1CCN(C(=O)CN2C(=O)CSc3c2c(C)nn3-c2ccccc2)CC1 0.799%, COc1cccc(NC(=O)c2cnc(SCC(=O)N3CCOCC3)n(C)c2=O)c1 -1.86%, CCc1ccc2c(c1)-c1ccccc1S(=O)(=O)N2CC(=O)N1CCCCC1 -4.33%, COc1ccc(-c2cn3c(n2)sc2cc(C(=O)NCCc4ccc(OC)cc4OC)ccc23)cc1 -3.22%, O=C(NCCCc1nc2ccccc2n1Cc1ccc(Cl)cc1Cl)c1ccco1 -1.8%, COc1ccc(C(=O)N2c3ccc(C)cc3C(C)(c3ccccc3)CC2(C)C)cc1 (centres undefined) -6.87%, COc1cc(Cl)c(C)cc1NC(=O)Cn1ncc2c3ccccc3n(Cc3ccccc3)c2c1=O -2.8%, CCc1ccc(CNC(=O)c2c(C)oc3ncn(CC(C)C)c(=O)c23)cc1 0.484%, COc1ccc(CNC(=O)CCCn2c(=O)c3cccn3c3cccnc32)cc1 0.835%, CCN(CC)CCCNC(=O)CN1N=C(c2ccc(OC)cc2)CCC1=O 0.0334%, CCc1ccc(S(=O)(=O)c2c(C(=O)c3ccccc3)cnc3ccc(CC)cc23)cc1 -11.6%, O=S(=O)(c1cccc(F)c1)N1CCC(Oc2ccc(-n3cnnn3)cc2)CC1 -3.72%, CCOCCCNC(=O)c1c(NC(=O)Cc2coc3ccc(C)cc23)sc2c1CCC2 -3.45%, CC(C)c1ccc(OCC(O)CN2CCN(c3ccc(F)cc3)CC2)cc1 (centres undefined) 15.7%, CCCCNS(=O)(=O)c1ccc2nc(-c3cccnc3)cc(C(=O)NCCOC)c2c1 1.05%, Cc1ccccc1NC(=O)c1ccc(Cl)c(S(=O)(=O)N2CCCCCC2)c1 9.41%, CCC1CCCCN1C(=O)Cn1c(=O)cc(C(F)(F)F)c2c(C)nn(C)c21 (centres undefined) -8.19%, COc1ccc(NC(=O)CSc2nccn2Cc2ccco2)c(OC)c1 -4.47%, O=C1c2[nH]nc(-c3ccccc3O)c2C(c2ccc(F)cc2)N1CCO (centres undefined) 0.84%, COc1ccc(OC)c(NC(=O)Cc2c(C(=O)O)n(C)c3ccc(C)cc23)c1 6.56%, CCOC(=O)c1c(C)sc(-c2c(-c3ccc(OC)c(F)c3)[nH]c3[nH]c(=O)[nH]c(=O)c23)c1O -2.62%, CC1=C(C(=O)Nc2ccc(Cl)cc2)C(c2ccc(C(F)(F)F)cc2)n2nnnc2N1 (centres undefined) -0.128%, COc1ccc(-c2nc(SCC(=O)N3CCCCC3C)n[nH]2)cc1 (centres undefined) 0%, COC(=O)c1cnn(-c2ccc(C(=O)Nc3cc(OC)c(OC)c(OC)c3)cc2)c1N -1.16%, CCc1ccccc1NC(=O)CSc1ncc(S(=O)(=O)c2ccc(C(C)C)cc2)c(N)n1 0.26%, CCc1ccc(-n2c(=O)c3c(C)c(C(=O)N(C)C)sc3n(Cc3ccccc3C#N)c2=O)cc1 -0.121%, Cc1ccc(CN(Cc2ccco2)C(=O)c2ccc(Cl)cc2)o1 -12.6%, CCc1cccc(C)c1Nc1c(-c2cccc(O)c2)nc2nc(C)cc(C)n12 -20.4%, Cc1ccc(NC(=O)C2CCCN2S(=O)(=O)c2ccc3c(c2)CCCC(=O)N3)cc1Cl (centres undefined) 0%, O=C(CSc1ccc2nc(-c3ccccc3)cn2n1)Nc1cccc(F)c1 -0.371%, COc1ccc(NC(=O)c2c(NC(=O)Cc3ccccc3)sc3c2CCCC3)cc1 -7.12%, COc1ccc(NC(=O)Cn2c(=O)n(Cc3ccc(C(=O)NCc4ccccc4Cl)cc3)c(=O)c3ccccc32)cc1 -13%, COc1ccc(Cn2nnc3c(=O)[nH]c(C4CCN(C(=O)c5ccc(C)cc5)CC4)nc32)cc1OC -9.77%, CCN(CC)CCCNC(=O)CN1N=C(c2ccccc2)CCC1=O 16.5%, Cc1cc(F)ccc1NC(=O)Cn1c(=O)ccc2cc(S(=O)(=O)N3CCC(C)CC3)ccc21 0.0361%, Cc1nn(CC(=O)N2CCN(c3cccc(C(F)(F)F)c3)CC2)c(=O)c2cccn12 1.27%, Cc1nn(C)c2c1c(C(F)(F)F)cc(=O)n2C(C)C(=O)NCc1ccccc1Cl (centres undefined) -0.713%, Cc1ccc(NC(=O)Cn2nnc(C(=O)NCc3cccs3)c2N)cc1Cl 6.47%, COC(=O)c1sccc1S(=O)(=O)N(CC(=O)NCc1ccc(F)cc1)c1ccc(Cl)cc1 -2.72%, COc1ccc(CNC(=O)c2ccc(CNS(=O)(=O)c3ccc(F)cc3)cc2)cc1 -17.7%, Cc1cc(C)cc(NC(=O)Cn2c(C(F)(F)F)nc3ccccc32)c1 -3.89%, Cc1oc(-c2cccc(Cl)c2)nc1Cn1c(SCc2ccccc2F)nc2ccncc21 -2.43%, Cc1ccccc1NC(=O)CSc1nnc(-c2cccs2)o1 -1.12%, COc1ccc(CCNC(=O)c2ccc3c(c2)N(Cc2ccccc2C)C(=O)c2ccccc2S3)cc1OC -15.6%, COc1ccccc1NC(=O)CSC1=Nc2ccccc2C2=NC(CC(=O)NCc3cccs3)C(=O)N12 (centres undefined) -4.43%, N#Cc1ccccc1NC(=O)CSc1nnc(N)s1 -3.4%, COc1ccc(CNC(=O)c2cnc(N3CCOCC3)c3ccccc23)cc1 -4.46%, Fc1ccc(-c2cn3cc(Cc4ccccc4)sc3n2)cc1 -8.24%, CCCN(CCC)C(=O)Cn1c(=O)n(-c2ccc(Cl)cc2)c(=O)c2c3c(sc21)CCCC3 2.6%, CCc1ccc2oc(-c3cc(NC(=O)c4cc([N+](=O)[O-])ccc4N4CCOCC4)ccc3Cl)nc2c1 -7.65%, Cc1ccc(Cl)cc1N1CCN(C(=O)c2cc3c(-c4ccccc4F)nn(C)c3s2)CC1 0.0743%, COc1ccc(-n2ncc(C(=O)N3CCOCC3)c2C2CCN(C(=O)OC(C)(C)C)CC2)cc1 6.03%, Cn1c(=O)c2sccc2n2c(CCCC(=O)NCc3ccccc3)nnc12 -4.6%
